This note sets out measurements from the supplement of paper PMC11417369.

The list shows a part of the results.

This assay relates to PfSIP2 AP2 domain 1 (GST-tagged). Description: gcPBM binding intensity (ln(normalized median fluorescence intensity)); higher = stronger DNA binding. In outline:
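Binding intensity is the highest Masliner-normalised natural-log median intensity over replicate spots in either probe orientation. To obtain it, GST-tagged P. falciparum DNA-binding domains made in E. coli were incubated for 1 h on an Agilent 4 × 180k array of primer-extended double-stranded 36-bp intergenic genomic probes plus negative controls. Detection used Alexa488 anti-GST antibody with scanning at 488 nm.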
In the case of “TTTTGAAAAAATTTTTATAAAAGAATAAAATTATTA [XGTACX_negctrl_site570]”, the “gcPBM binding intensity (ln)” value was 6.86.
Regarding “AATATTTTACAATACACATGCAAATAATATTCTAAA [TGCATGCA_site618]”, the “gcPBM binding intensity (ln)” value amounted to 6.69.
For “TAAAAATGGAAACACACACACATAAATATATTTTAT [CACACA_site2513]”, the “gcPBM binding intensity (ln)” value was found to be 6.97.
As for “TCTCATTTTCCCTAAAAAAAAAAATAAATAAAAATA [TGCATGCA_negctrl_site580]”, the “gcPBM binding intensity (ln)” value worked out at 6.89.
As for “TTTTTCCATATTGTAGCATGCAGTATATATATCATG [TGCATGCA_site530]”, the “gcPBM binding intensity (ln)” value is 7.
As for “ATATTATTTATGTATGCATGCGGCGAAATGGGCTTG [TGCATGCA_site28]”, the “gcPBM binding intensity (ln)” value turned out to be 7.19.
For “AATGGGTTACACATATGTACATAAAATATAAAAAAT [XGTACX_site3440]”, the “gcPBM binding intensity (ln)” value is 7.08.
The value for “ATATATATATATATATGTACTTAAAAAATATATACA [XGTACX_site8952]” was 8.99.
The value for “AAAAAAAAAAAAAAAAAAAAAAAAAAAATACGAAAG [GTGCAC_negctrl_site729]” was 8.9; that for “CTTTTTAATTAATACACACACACACGGATATAAATA [CACACA_site7145]” was 7.27; that for “TATTTTTTTTGTGTGTGTCCTCATGTAATACTGCAA [XGTACX_site1380]” was 7.5.
The value for “TATATTAAACTTTGCACACATAATTTAACTACAAAG [CACACA_site3441]” was 7.39.
For “AATCATTTATTGATGGTGCAATATACCATCTAATGA [GTGCAC_site9440]”, the “gcPBM binding intensity (ln)” value came out at 9.44.
“AAAAAAAAAAAACACACACACACACCCAAATATATA [CACACA_site150]”: the “gcPBM binding intensity (ln)” value was found to be 7.14.
In the case of “CATAATACATATAACACACACAATTATACATAAAAT [CACACA_site3233]”, the “gcPBM binding intensity (ln)” value stood at 7.13.
Regarding “GGAATTGAAAAATCAGCACACACACTAATACATACA [CACACA_site9059]”, the “gcPBM binding intensity (ln)” value is 7.04.
As to “AATAATTGTTAAAGGTGTACAATACCTACATAAGAA [XGTACX_site4215]”, the “gcPBM binding intensity (ln)” value came out at 7.53.
The value for “AAATGGCAATAATGGACACACAAATGTTGTTATATA [CACACA_site2819]” was 6.85.
The value for “AAAAAGGAAATTTACACACACATATAATATACATTA [CACACA_site3296]” was 7.01; that for “ATTTACCAGACCATATGTACATACATAAAACACACA [XGTACX_site3788]” was 7.46.
For the sequence “GTTCTACAAGCCACTGCATGCTGATATAGAATAAAT [TGCATGCA_site138]”, the “gcPBM binding intensity (ln)” value worked out at 6.86.
The value for “TCATATATCCTTATCACACATATAATAAATTCCCTT [CACACA_site4457]” was 6.86.
As to AATATTTCTCATTTTGTGCACTGAAAAATGTAATAT, the “gcPBM binding intensity (ln)” value was determined as 10.2.
The value for “TTCTTTGCTTTTCAAACACACAAAAGTTATTATAGT [CACACA_site6390]” was 7.13; that for TCACATTTTGGACACGTGCACATATATTTGATACAT was 8.43.
As for “ATTTATATATAAATGTGTACATATATATATATAAAC [XGTACX_site7592]”, the “gcPBM binding intensity (ln)” value amounted to 7.43.
“ATTGTAAGTAAACACACACACATATATCTGTATTTA [CACACA_site4542]”: the “gcPBM binding intensity (ln)” value was determined as 6.99.
As to “CTGAAATTAACAAAAGTGCATAAAAATAAAAAATAT [GTGCAC_site9652]”, the “gcPBM binding intensity (ln)” value came out at 8.33.
As for “TACCATGTTCAAATTACACACATATAATGCAATATA [CACACA_site7034]”, the “gcPBM binding intensity (ln)” value is 7.09.
As to “CAATGCAAGGCTTAAAAAAATGGGCATATTATATAT [GTGCAC_negctrl_site304]”, the “gcPBM binding intensity (ln)” value came out at 6.94.
For the sequence “TTTTTTTACAACATTACACACAAATATTCTGGGTTA [CACACA_site3755]”, the “gcPBM binding intensity (ln)” value amounted to 7.05.
Take “AATATTATATTAAAATGTACAAAAATGAATTACTTT [XGTACX_site1473]”: the “gcPBM binding intensity (ln)” value is 6.8.
As for “AAAAAAAAAAAAAAAACACACATACATACATACATA [CACACA_site6125]”, the “gcPBM binding intensity (ln)” value is 7.53.
The value for “TTTTTTTTTTTTTTTGCACACACCATATTTATAGAA [CACACA_site3310]” was 7.75.
“AGAAAAGTGATATATACACACTTATATTTATTTATA [CACACA_site7350]”: the “gcPBM binding intensity (ln)” value was determined as 6.79.
“TTTTATAAGGTGAAAAGTACATATAACTTATTTTAC [XGTACX_site5572]”: the “gcPBM binding intensity (ln)” value stood at 6.99.
The value for “TTAAATGATGTAAACACACACATATACATTATTATA [CACACA_site3162]” was 6.9.
The figure for “TATTGTCTATAATAAACACACAATATTAAAAATATA [CACACA_site6624]” is 6.76; for “ATCTTTCCTATTTGTAGTACAAAAAAAAAAAAAAAA [XGTACX_site5485]” it is 7.4.
The value for “ACGTGTGATTATAATTGTACTTTAATGTAAGAATGA [XGTACX_site1109]” was 7.21.
Turning to “ATATATATATATATATGTACTTATAATAATATTCAA [XGTACX_site2593]”, the “gcPBM binding intensity (ln)” value worked out at 8.88.
With “TTATTTTATTTTTTTGTGCACATATATATTTATAAA [GTGCAC_site9615]”, the “gcPBM binding intensity (ln)” value worked out at 9.43.
For the sequence “AATTTTATTTAATTTTTTTGGGAAATGATAAAATTT [CACACA_negctrl_site934]”, the “gcPBM binding intensity (ln)” value stood at 6.79.
“ACTTATATATTATGTTGTCCGTCCATTCTCTTTATC [XGTACX_site3769]”: the “gcPBM binding intensity (ln)” value was found to be 7.21.
The figure for “TTTTCATTCAATTATATTTATATATATATATATATA [GTGCAC_negctrl_site538]” is 9.28.
The value for “TACATGTATAAATAAGCACACATGTGGATATGTACA [CACACA_site93]” was 6.98; that for “CAAAATATTTTTATAACACACATATATATAATGTGC [CACACA_site4767]” was 6.99.
Regarding “TACACAAGGGGAAAAATATATATATATATATATATA [TGCATGCA_negctrl_site217]”, the “gcPBM binding intensity (ln)” value was 9.53.
The figure for “TAAAAAATTTTATATTCACACACATATATATATATA [CACACA_site8109]” is 9.41.
The figure for “TAAAAGTATATATATACACACATAAATATATATGTA [CACACA_site663]” is 6.99.
The value for “AAAATTTAAAGCATGACACACAATTATATTATGTGC [CACACA_site3435]” was 6.68; that for “TTGTGAAATAAAATTTGTACACACATATATATATAT [XGTACX_site1078]” was 9.53; that for “TTTTTTTTGGAATTCACACAAATATAACATGGGTAT [CACACA_site5185]” was 7.15.
Take “TTCTTTTCTTTAGTAGAATGTAAAAAATATAATCTT [XGTACX_negctrl_site290]”: the “gcPBM binding intensity (ln)” value amounted to 7.01.
In the case of “TATCTCTTCATATTGTGTACATATTTTTATTTATTG [XGTACX_site4038]”, the “gcPBM binding intensity (ln)” value stood at 7.36.
As for “AATTACTACATAAATACATGCATAATTATATATATA [TGCATGCA_site783]”, the “gcPBM binding intensity (ln)” value stood at 8.09.
The value for “AACACTTCTTATTTATGTACTTAATTCCCAACGGAA [XGTACX_site4818]” was 7.2.
The figure for “ATAAAATATAAAAATTGTACGATAATAATAGTAGGA [XGTACX_site8951]” is 7.23; for “AAATATATATATATATATATATATATATATATATAT [CACACA_negctrl_site677]” it is 9.56.
The figure for “AAATGAATAAATAAGACACACACGAAAATAAGTAAA [CACACA_site71]” is 7.22; for “TGATCAGATAGACACACACACAAAAAAAAAAAAAAA [CACACA_site7805]” it is 7.1; for TTATAAAATTACTTGGTGCATTAGAATATTTCAATA it is 10.1.
Take “TGTTTATTTTTAAAAAGTACATATTTAAAAAACTTC [XGTACX_site271]”: the “gcPBM binding intensity (ln)” value stood at 7.14.
On to “TTTTCTAAATAAATAGTGCATTTATTATATATACAT [GTGCAC_site9766]”, for which the “gcPBM binding intensity (ln)” value is 9.15.
The figure for “CAAAAGAAGGTAAACACACACACACGCATACAAAAA [CACACA_site7724]” is 7.18.
The figure for “CAAAACCTTATATGTACACACATATACATCACCCTT [CACACA_site3170]” is 6.92.
The value for “ATAGAATAAAACTATACACACCTATATTTAAACATA [CACACA_site5106]” was 7.02; that for “ATTTCTCTATCGTAATGTACATAAAAAATGAAAAAA [XGTACX_site1201]” was 7.54.
“TTGTATTATATTGTATTATGTTTAAATGAAAAAAAA [CACACA_negctrl_site662]”: the “gcPBM binding intensity (ln)” value came out at 7.09.
In the case of “TATTGTTACTTTATATGTACTAATTAAACATATACA [XGTACX_site6363]”, the “gcPBM binding intensity (ln)” value was 7.24.
On to “AAAAATACCTTATATATACACACTATGTTTTTCTTT [CACACA_site1192]”, for which the “gcPBM binding intensity (ln)” value was found to be 6.89.
Regarding “AAATATTAGTAACACAGACACACAAAAAAAAAAAAA [CACACA_site2175]”, the “gcPBM binding intensity (ln)” value is 6.9.
The figure for “AAAAAAAAAAAAAAAAGTACACAAATTTTAAAAATT [XGTACX_site3006]” is 7.58.
Turning to “ATATTAAAATGAAAATATAAAAAAAAAAAAAAAAAA [CACACA_negctrl_site1559]”, the “gcPBM binding intensity (ln)” value was 6.89.
The value for “CAATCAAATAGACACACACACACCTAAACATAAAAG [CACACA_site7322]” was 7.
The figure for “TATTAATAAAAGCATTGTACAGTAATAAATAAATAA [XGTACX_site2924]” is 7.
In the case of “TATATATATAAACACACACACACCAAAGCGTAGCGC [CACACA_site7903]”, the “gcPBM binding intensity (ln)” value worked out at 8.45.
The figure for “AGCCATTAATTCTCTACACACCTTTATGTTATTTAG [CACACA_site3635]” is 7.2; for “TTGTATTCATAACAACGTACATATTTTGTAACTAAA [XGTACX_site4029]” it is 6.9.
On to “TTTCAAACAAAAAGACGTACACTGAAGTTATCCGTC [XGTACX_site8824]”, for which the “gcPBM binding intensity (ln)” value worked out at 6.74.
The value for “AAGGAAATATAATATACACACATAAGTGTACTTCTA [CACACA_site6079]” was 7.07; that for “ACTCATAAAAATAGATGTACTTTAATAATTTGATTT [XGTACX_site8763]” was 7.07.
The value for “TCAAACGGTTAAATATGTACATATATATATATATAT [XGTACX_site2339]” was 9.13; that for “AAAAAAAAAAGACACACACACATATAAATATAAATA [CACACA_site6899]” was 6.97.
Regarding ACCCACTTTTGAGGTGTGCACAATAAATTGGACATT, the “gcPBM binding intensity (ln)” value stood at 9.18.
The value for “ATATATATTTAAACTACACACGCATATCTTAGAAAT [CACACA_site8348]” was 7.23; that for “TAAGAGATATTTTATTAAATGTTTTATGAATCATGT [TGCATGCA_negctrl_site264]” was 6.58.
Take “AGGAAAAAAAAAATGACACACATATTTGAATTAAAA [CACACA_site1352]”: the “gcPBM binding intensity (ln)” value is 6.83.
The value for “GTACATACATAAAACACACACATATAGATTTATATA [CACACA_site6945]” was 7.12.
